In all, about 340,000 compounds went through this assay and about 6,900 (2%) were called active. Rule as the data show it: active = inhibition above about 30%; inactive = below that, where a call was filed. The list shows a part of the results, in another mix than the full data. Entries without a call were filed so in the source.
target: D(2) dopamine receptor (Homo sapiens) (UniProt P14416); assay: HTS Assay for Allosteric Antagonists of the Human D2 Dopamine Receptor: Primary Screen for Antagonists; conditions: HEK293 TREx D2 cells, calcium flux, dopamine EC80; at 10 µM; stronger effect = higher value; also: 0% is about no effect
Procedure, shortened: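 Calcium flux kinetic readout in an inducible HEK293 TREx D2 line plated overnight at 30 C. After 180 s compound exposure, an EC80 dopamine challenge follows with another 180 s kinetic read to detect antagonism.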

Chain of UniProt P14416 (P14416 whole entry, looked up): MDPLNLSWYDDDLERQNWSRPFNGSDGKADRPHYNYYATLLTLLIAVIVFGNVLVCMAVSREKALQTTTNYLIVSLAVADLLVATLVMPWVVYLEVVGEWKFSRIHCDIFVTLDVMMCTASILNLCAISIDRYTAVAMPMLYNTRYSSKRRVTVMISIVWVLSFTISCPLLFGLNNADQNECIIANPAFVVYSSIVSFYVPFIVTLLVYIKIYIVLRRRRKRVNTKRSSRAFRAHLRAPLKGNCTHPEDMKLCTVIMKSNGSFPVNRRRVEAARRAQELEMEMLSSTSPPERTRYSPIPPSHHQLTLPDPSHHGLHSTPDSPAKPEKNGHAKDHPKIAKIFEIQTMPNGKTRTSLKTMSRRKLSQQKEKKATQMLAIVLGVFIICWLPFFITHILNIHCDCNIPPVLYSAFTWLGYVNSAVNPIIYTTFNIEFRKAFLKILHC

SMILES	inhibition
O=c1c2ccccc2n2c(-c3ccccc3F)nnc2n1CCc1ccccc1	13.2%
CC(C)[C@@H](C(=O)OCC(=O)Nc1ccc2c(c1)OCO2)N1C(=O)c2ccccc2C1=O	active: 46.3%
COc1cc(OC)c(N(C)C(=O)c2cc3c(=O)oc4ccccc4c3s2)cc1Cl	-12.9%
Cc1ccc(-n2nc(C(=O)N(C)Cc3ccccc3)c3c4ccccc4n(C)c3c2=O)cc1	7%
CC1(C2CC2)NC(=O)N(CC(=O)NCc2ccc(Cl)cc2Cl)C1=O (stereo unspecified)	active: 40%
Cc1ccc(C(=O)N(c2ccc(C)cc2)S(=O)(=O)c2ccc(Cl)cc2)cc1	5.74%
COc1ccccc1N=C1SC(C(=O)Nc2ccccc2OC)CC(=O)N1C (stereo unspecified)	2.74%
CCOC(=O)c1noc2ncnc(NCc3ccccc3OC)c12	5.71%
COc1ccccc1NC(=O)CSC1=Nc2ccccc2C2=NC(CC(=O)NCc3ccc4c(c3)OCO4)C(=O)N12 (stereo unspecified)	-3.01%
O=C(NCCOCCn1c(=O)oc2ccccc21)Nc1cccc(Cl)c1	-2.9%
COC(=O)c1ccccc1NC(=O)C1CCCN(c2ncnc3onc(C)c23)C1 (stereo unspecified)	1.73%
Cc1ccc(CNC(=O)c2sc3nc4n(c(=O)c3c2C)CCCCC4)cc1	-6.06%
Cc1cccc(NC(=O)c2ccc(CNS(=O)(=O)c3ccc4c(c3)C(C)(C)C(=O)N4C)cc2)c1	-9.56%
COc1ccc(C(=O)CN2CCN(c3ncccn3)CC2)cc1	active: 39.2%
CSc1cccc(NC(=S)N(CCCN2CCCC(C)C2)Cc2cccs2)c1 (stereo unspecified)	active: 45.6%
O=C(CCN1CCN(Cc2ccccc2)CC1)Nc1ccc(OCc2ccccc2)cc1	active: 42%
Cc1ccccc1C(=O)N(Cc1ccc(N(C)C)cc1)CC1CCCO1 (stereo unspecified)	-6.51%
CCN1CCC2(CC1)C(C#N)=C(N)Oc1c2sc2nc(C)cc(C)c12	active: 53.2%
CN1C(=O)C(C)(C)c2cc(S(=O)(=O)N3CCCC3C(=O)Nc3ccc(F)cc3)ccc21 (stereo unspecified)	-5.62%
CCOC(=O)COc1ccc(F)cc1C(=O)c1ccn2nc(-c3ccc(C)cc3)cc2n1	0.827%
COc1cc(C(=O)N(Cc2cccnc2)c2nc3cc(C)c(C)cc3s2)cc(OC)c1OC	-19.8%
COc1cc(Cl)c(C)cc1NC(=O)c1sc2nc(C)cc(C)c2c1N	16.3%
Cc1ccsc1CN(C(=O)COc1cccc(C)c1C)C1CCS(=O)(=O)C1 (stereo unspecified)	-0.901%
COc1ccccc1NC(=O)C(Cc1ccccc1)NS(=O)(=O)c1cccc2nsnc12 (stereo unspecified)	-8.02%
CCCCOC(=O)c1cccc(NC(=O)/C=C/c2ccccc2Cl)c1	-2.25%
COC(=O)c1ccc(Cl)cc1NC(=O)N(Cc1ccc(OC)cc1)C1CCN(C(C)=O)CC1	2.33%

Reference: PubChem BioAssay AID485344 (National Center for Advancing Translational Sciences (NCATS), 2010)
